In patent US11178870B2 (priority 2017, dated 2021):

Experiments:
Type in all cases: in vivo
Botrytis cinerea = test: Test Example B: Gray mold on tomato; conditions: for Test B control value (gray mold on tomato): class of control value, Table 7; for control value, Test B (gray mold on tomato): Table 7, Test B; for Test B control value: Gray mold on tomato
Alternaia brassicicola = test: Test Example C: Alternaria sooty spot on cabbage; conditions: for Test C control value (Alternaria sooty spot on cabbage): class of control value, Table 7; for control value, Test C (Alternaria sooty spot on cabbage): Table 7, Test C; for Test C control value: Alternaria sooty spot on cabbage
[1] = system: Blumeria graminis f. sp. hordei; test: Test Example D: Powdery mildew on barley; conditions: for Test D control value (powdery mildew on barley): class of control value, Table 7; for control value, Test D (powdery mildew on barley): Table 7, Test D; for Test D control value: Powdery mildew on barley
Puccinia recondita = test: Test Example E: Brown rust on wheat; conditions: for Test E control value (brown rust on wheat): class of control value, Table 7; for control value, Test E (brown rust on wheat): Table 7, Test E; for Test E control value: Brown rust on wheat
Plasmopara viticola = test: Test Example G: Downy mildew on vine; conditions: for Test G control value (downy mildew on vine): 250 ppm spray, investigated 7 to 10 days after inoculation; for Test G control value (downy mildew on vine) / Test G control value: 2.5 ml/pot; for control value, Test G (downy mildew on vine): 250 ppm sprayed (2.5 ml/pot) before inoculation, assessed 7 to 10 days after inoculation; for Test G control value: Downy mildew on vine, 250 ppm sprayed, 7 to 10 days after inoculation

| SMILES | Test B control value (gray mold on tomato) (Botrytis cinerea) | Test C control value (Alternaria sooty spot on cabbage) (Alternaia brassicicola) | Test D control value (powdery mildew on barley) [1] | Test E control value (brown rust on wheat) (Puccinia recondita) | Test G control value (downy mildew on vine) (Plasmopara viticola) | control value, Test B (gray mold on tomato) (Botrytis cinerea) | control value, Test C (Alternaria sooty spot on cabbage) (Alternaia brassicicola) | control value, Test D (powdery mildew on barley) [1] | control value, Test E (brown rust on wheat) (Puccinia recondita) | control value, Test G (downy mildew on vine) (Plasmopara viticola) | Test B control value (Botrytis cinerea) | Test C control value (Alternaia brassicicola) | Test D control value [1] | Test E control value (Puccinia recondita) | Test G control value (Plasmopara viticola) |
| --- | --- | --- | --- | --- | --- | --- | --- | --- | --- | --- | --- | --- | --- | --- | --- |
| COc1ccc(-c2c(-n3cc(F)cn3)cc(Br)c(=O)n2CC(F)F)c(Br)c1 [Compound 450] | H (H shows the control value more than 50%) | H (H shows the control value more than 50%) | L (L shows the control value of 50% or less) | H (H shows the control value more than 50%) | L (L shows the control value of 50% or less) | – | – | – | – | – | – | – | – | – | – |
| CCn1c(-c2ccccc2F)c(-n2cc(Cl)cn2)ccc1=O [Compound 217] | – | – | – | – | – | H (H shows the control value more than 50%) | H (H shows the control value more than 50%) | H (H shows the control value more than 50%) | H (H shows the control value more than 50%) | L (L shows the control value of 50% or less) | – | – | – | – | – |
| Cc1sccc1-c1cc(Cl)c(=O)n(CC(F)F)c1-c1c(F)cccc1F [Compound 480] | L (L shows the control value of 50% or less) | H (H shows the control value more than 50%) | L (L shows the control value of 50% or less) | L (L shows the control value of 50% or less) | L (L shows the control value of 50% or less) | – | – | – | – | – | – | – | – | – | – |
| CCn1c(-c2c(F)cc(F)cc2F)c(-n2c(C)ccc2C)cc(Cl)c1=O [Compound 125] | – | – | – | – | – | – | – | – | – | – | H (H shows the control value more than 50%) | H (H shows the control value more than 50%) | L (L shows the control value of 50% or less) | H (H shows the control value more than 50%) | L (L shows the control value of 50% or less) |
| Cc1cnn(-c2cc(Br)c(=O)n(C)c2-c2ccc(F)cc2F)c1Cl [Compound 412] | H (H shows the control value more than 50%) | H (H shows the control value more than 50%) | H (H shows the control value more than 50%) | H (H shows the control value more than 50%) | H (H shows the control value more than 50%) | – | – | – | – | – | – | – | – | – | – |
| CCn1c(-c2c(F)cccc2F)c(-c2ccsc2)ccc1=O [Compound 16] | – | – | – | – | – | – | – | – | – | – | H (H shows the control value more than 50%) | H (H shows the control value more than 50%) | H (H shows the control value more than 50%) | H (H shows the control value more than 50%) | L (L shows the control value of 50% or less) |
| CCn1c(-c2ccc(F)cc2F)c(-c2ccsc2C)ccc1=O [Compound 503] | H (H shows the control value more than 50%) | H (H shows the control value more than 50%) | H (H shows the control value more than 50%) | H (H shows the control value more than 50%) | H (H shows the control value more than 50%) | – | – | – | – | – | – | – | – | – | – |
| Cn1c(-c2c(F)cccc2F)c(-c2ccsc2Br)cc(Cl)c1=O [Compound 429] | H (H shows the control value more than 50%) | H (H shows the control value more than 50%) | L (L shows the control value of 50% or less) | H (H shows the control value more than 50%) | L (L shows the control value of 50% or less) | – | – | – | – | – | – | – | – | – | – |
| Cc1ccccc1-c1c(-n2ncc(C)c2Cl)cc(Br)c(=O)n1CC(F)F [Compound 307] | – | – | – | – | – | H (H shows the control value more than 50%) | H (H shows the control value more than 50%) | H (H shows the control value more than 50%) | H (H shows the control value more than 50%) | L (L shows the control value of 50% or less) | – | – | – | – | – |
| O=c1c(Cl)cc(-c2sccc2Cl)c(-c2c(F)cccc2F)n1CC(F)F [Compound 437] | H (H shows the control value more than 50%) | H (H shows the control value more than 50%) | H (H shows the control value more than 50%) | H (H shows the control value more than 50%) | L (L shows the control value of 50% or less) | – | – | – | – | – | – | – | – | – | – |
| CCc1ccccc1-c1c(-n2ncc(C)c2Cl)cc(Br)c(=O)n1CC [Compound 322] | – | – | – | – | – | H (H shows the control value more than 50%) | H (H shows the control value more than 50%) | H (H shows the control value more than 50%) | H (H shows the control value more than 50%) | L (L shows the control value of 50% or less) | – | – | – | – | – |
| CCn1c(-c2c(F)cc(OC)cc2F)c(-n2cc(Br)c(C)n2)cc(Br)c1=O [Compound 151] | – | – | – | – | – | – | – | – | – | – | H (H shows the control value more than 50%) | H (H shows the control value more than 50%) | L (L shows the control value of 50% or less) | H (H shows the control value more than 50%) | L (L shows the control value of 50% or less) |
| O=c1c(Br)cc(-c2cccnc2Cl)c(-c2c(F)cccc2F)n1CC(F)(F)F [Compound 64] | – | – | – | – | – | – | – | – | – | – | H (H shows the control value more than 50%) | L (L shows the control value of 50% or less) | H (H shows the control value more than 50%) | H (H shows the control value more than 50%) | L (L shows the control value of 50% or less) |
| CCn1c(-c2c(F)cc(F)cc2F)c(-c2ocnc2Cl)cc(Br)c1=O [Compound 107] | – | – | – | – | – | – | – | – | – | – | H (H shows the control value more than 50%) | H (H shows the control value more than 50%) | H (H shows the control value more than 50%) | H (H shows the control value more than 50%) | H (H shows the control value more than 50%) |
| O=c1ccc(-n2cc(F)cn2)c(-c2ccc(F)cc2F)n1CC(F)F [Compound 284] | – | – | – | – | – | H (H shows the control value more than 50%) | H (H shows the control value more than 50%) | H (H shows the control value more than 50%) | H (H shows the control value more than 50%) | L (L shows the control value of 50% or less) | – | – | – | – | – |
| CCn1c(-c2c(F)cccc2F)c(-c2cccnc2Cl)cc(Br)c1=O [Compound 55] | – | – | – | – | – | – | – | – | – | – | H (H shows the control value more than 50%) | H (H shows the control value more than 50%) | H (H shows the control value more than 50%) | H (H shows the control value more than 50%) | L (L shows the control value of 50% or less) |
| CCn1c(-c2ccc(F)cc2Br)c(-n2cc(F)cn2)cc(Br)c1=O [Compound 353] | – | – | – | – | – | H (H shows the control value more than 50%) | H (H shows the control value more than 50%) | H (H shows the control value more than 50%) | H (H shows the control value more than 50%) | L (L shows the control value of 50% or less) | – | – | – | – | – |
| O=c1c(Cl)cc(-c2cc(Br)sc2Cl)c(-c2c(F)cccc2F)n1CC(F)F [Compound 403] | H (H shows the control value more than 50%) | H (H shows the control value more than 50%) | L (L shows the control value of 50% or less) | L (L shows the control value of 50% or less) | L (L shows the control value of 50% or less) | – | – | – | – | – | – | – | – | – | – |
| CCn1c(-c2ccccc2F)c(-n2cc(Cl)cn2)cc(Br)c1=O [Compound 221] | – | – | – | – | – | L (L shows the control value of 50% or less) | H (H shows the control value more than 50%) | L (L shows the control value of 50% or less) | L (L shows the control value of 50% or less) | L (L shows the control value of 50% or less) | – | – | – | – | – |
| Cn1c(-c2c(F)cc(F)cc2F)c(-c2cccnc2Cl)cc(Br)c1=O [Compound 104] | – | – | – | – | – | – | – | – | – | – | H (H shows the control value more than 50%) | H (H shows the control value more than 50%) | H (H shows the control value more than 50%) | H (H shows the control value more than 50%) | L (L shows the control value of 50% or less) |
| CCn1c(-c2ccccc2Br)c(-n2cc(Cl)cn2)cc(Br)c1=O [Compound 196] | – | – | – | – | – | H (H shows the control value more than 50%) | H (H shows the control value more than 50%) | L (L shows the control value of 50% or less) | H (H shows the control value more than 50%) | L (L shows the control value of 50% or less) | – | – | – | – | – |
